The structures appear in SMILES notation. The campaign covered roughly 52,000 compounds. About 1,700 (3.3%) were called active. No stated cut-off is given here; in the data, active means survival mostly below about 52% (no sharp cut-off); inactive means mostly above about 56%. Some of the results follow.

This test has as its system Wild type. The test can be described thus: growth inhibition of S. aureus wild type versus tarO mutant, primary screen, teichoic acid synthesis inhibitors, RN4220, OD600 (AID 463173). To be noted: S. aureus RN4220 wild type/DeltatarO growth, OD600, 18 h, hits give low values, screened at 18.75 µg/mL (by protocol).
With `Cc1cccc(C(=O)Nc2c(C(=O)NCc3ccc(Cl)cc3)sc3nc(C)cc(C)c23)c1`, the survival is inactive: 82%.
Next, `COc1ccc(OC)c(CCNC(=O)c2cnn(-c3ccccc3Cl)c2C2CCN(C(=O)OC(C)(C)C)CC2)c1`: inactive: 78%.
In the case of `COc1ccccc1NC(=O)C1=C(C)Nc2nnnn2C1c1cc(Br)c(O)c(OC)c1` (stereo not drawn) it was inactive: 74%; in that of `COc1cccc(-n2c(=O)c3c(C)c(C)sc3n(CC(=O)NCc3ccccc3)c2=O)c1`, inactive: 93%; in that of `COc1ccc(-c2nsc(NC(=O)C(C)Oc3ccc(Cl)c(C)c3)n2)cc1` (stereo not drawn), inactive: 67%.
Regarding `COc1ccc(NC(=O)c2cnc(Nc3ccc(C)c(Cl)c3)c3ccccc23)cc1OC`, the survival was inactive: 87%.
Turning to `Cc1ccc(C)c(Cn2c(=O)cc(C)c3c(C)nn(-c4cccc(F)c4)c32)c1`, the survival was inactive: 73%.
For the compound `Cc1sc2ncn(CC(=O)N3CCN(c4cccc(Cl)c4)CC3)c(=O)c2c1S(=O)(=O)N1CCN(c2ncccn2)CC1`, the survival is inactive: 96%.
`COc1ccccc1N1CCN(S(=O)(=O)CCNC(=O)COc2ccc(C(C)C)cc2)CC1`: the survival is inactive: 91%.
For `CCCN(CCC)CCNC(=O)c1ccc2c(c1)NC(=O)C(CS(=O)(=O)Cc1cccc(Br)c1)N2` (stereo not drawn), the survival was inactive: 136%.
In the case of `COc1ccc(-c2nc(C)c(CCNC(=O)C(=O)Nc3cc(C)cc(C)c3)s2)cc1OC`, the survival is inactive: 59%.
For the compound `COc1ccc(-c2nc(SCc3cc(=O)c4cc(C)ccc4[nH]3)n[nH]2)cc1`, the survival is inactive: 74%.
Take `COc1ccc(NC(=O)c2ccc3c(SCC(=O)O)c4c(nc3c2)CCC4)c(OC)c1`: the survival was inactive: 89%.
In the case of `CCOc1ccccc1N1CC(c2nc3ccccc3n2Cc2c(C)cc(C)cc2C)CC1=O` (stereo not drawn), the survival is inactive: 102%.
As to `Cc1ccc(NC(=O)Cn2nc(C)n3cccc3c2=O)c(C)c1`, the survival is inactive: 95%.
`CCOCCCNC(=O)C(c1ccc(OC)cc1)N(Cc1ccc2c(c1)OCO2)C(=O)c1ccccc1O` (stereo not drawn): the survival was inactive: 74%.
For the compound `Cc1ccccc1C(=O)Nc1c(C)nc(Nc2ccccc2)nc1Nc1ccccc1`, the survival was inactive: 94%.
Take `CC(=O)N1c2ccc(S(=O)(=O)NCC3CCC(C(=O)Nc4cccc(C)c4C)CC3)cc2CC1C` (stereo not drawn): the survival was inactive: 95%.
On to `Cc1cccc(N2CCN(C(=O)c3cc4c(=O)n(C)c5ccccc5c4s3)CC2C)c1` (stereo not drawn), for which the survival was inactive: 61%.
On to `COc1ccc(N2CC(C(=O)NCc3nnnn3-c3ccc(C)c(C)c3)CC2=O)cc1` (stereo not drawn), for which the survival was inactive: 88%.
For `COc1ccc(CCNC(=O)C(=O)NCC(c2ccco2)S(=O)(=O)c2ccccc2)cc1` (stereo not drawn), the survival was inactive: 72%.
Next, `Cc1cccc(N2C(=O)CSC23C(=O)N(CC(=O)NCc2ccccc2Cl)c2ccccc23)c1` (stereo not drawn): inactive: 135%; `COc1ccccc1NC(=O)Cn1c(=O)c(CNc2ccc(C)cc2)cc2cc3c(cc21)OCCO3`: inactive: 49%.
Regarding `COc1ccc(-c2nnc3n2N(C(C)=O)C(c2ccc(Cl)c(Cl)c2)=C(C(C)=O)S3)cc1`, the survival is active: -3%.
On to `O=C(Cn1c(SCCOc2ccc(Cl)cc2)nc2ccccc21)N1CCCCC1`, for which the survival is inactive: 71%.
On to `COCCCn1c(SCC(=O)N(Cc2ccco2)c2nccs2)nc2sc3c(c2c1=O)CCC3`, for which the survival is inactive: 87%.
Turning to `O=c1[nH]c(=O)n(C2CCCCC2)c(O)c1C1=Nc2ccccc2SC(c2ccc(Cl)cc2)C1` (stereo not drawn), the survival was inactive: 81%.
In the case of `COc1ccc2cc3cc(C(=O)N4CCN(c5ccccc5F)CC4)oc3nc2c1`, the survival is inactive: 64%.
In the case of `O=C(NC12CC3CC(CC(C3)C1)C2)N1CCC(O)(c2ccc3c(c2)OCO3)CC1` it was inactive: 99%; in that of `CC1SC2(C(=O)Nc3ccccc32)N(c2ccccc2)C1=O` (stereo not drawn), inactive: 99%; in that of `CCCOc1ccc(C2CC(=O)Nc3c2c(C)nn3-c2nncc(-c3cccc(OC)c3)n2)cc1OC` (stereo not drawn), inactive: 72%.
With `COc1cccc(C2=CC(c3cc(Br)ccc3F)n3nnnc3N2)c1` (stereo not drawn), the survival was active: -4%.
As for `O=C(CCc1ccccc1)NCc1ccc2c(c1)OCO2`, the survival is inactive: 106%.
For the compound `Cc1nc2c(c(C)c1CCC(=O)NCc1ccc(Cl)cc1)c(=O)n(C)c(=O)n2C`, the survival was inactive: 96%.
With `Cc1cccc(NC(=O)c2ccc3c(c2)CCN3S(=O)(=O)c2ccccc2)c1C`, the survival was inactive: 84%.
With `Cc1ccc(NC(=O)Nc2sc3nc4n(c(=O)c3c2C)CCC(C)CC4)c(Cl)c1` (stereo not drawn), the survival was inactive: 136%.
Next, `COc1cccc(OC)c1C(=O)Nc1nc2c(s1)CCc1ccccc1-2`: inactive: 84%; `O=C1C2C3C=CC(C3)C2C(=O)N1c1ccc(Cl)cc1` (stereo not drawn): inactive: 101%.
As to `COC(=O)c1ccc(NC(=O)N2CCN(Cc3cc(=O)n4nc(-c5ccc(C)cc5)sc4n3)CC2)cc1`, the survival was inactive: 68%.
Consider `CC(CNC(=O)CN1C(=O)c2cccnc2Oc2ccc(Cl)cc21)c1ccccc1` (stereo not drawn), for which the survival is inactive: 73%.
As for `COc1ccc(-c2noc(-c3ccc(N4CCN(c5ccccc5)CC4)c([N+](=O)[O-])c3)n2)cc1`, the survival was inactive: 83%.
As for `O=C(NCc1nc2ccccc2[nH]1)c1c(F)cccc1F`, the survival is inactive: 70%.
As to `Cc1cccc(-n2c(C)nc3cc(C(=O)NCCC4=CCCCC4)ccc32)c1`, the survival is inactive: 73%.
`Cc1ccc(/C=C/c2onc(C)c2S(=O)(=O)N2CCC(C(=O)N3CCN(c4ccccc4F)CC3)CC2)cc1`: the survival is inactive: 136%.
In the case of `O=C(NCCN1CCOCC1)c1ccc2c(c1)OCCO2` it was inactive: 89%; in that of `CCn1c(=O)cc(OCC(=O)N2CCN(c3ccc(OC)cc3)CC2)c2ccccc21`, inactive: 80%; in that of `CC(C)(C)C(=O)NC1CCN(S(=O)(=O)c2ccc(C(F)(F)F)cc2)CC1`, inactive: 98%.
Turning to `CNC(=O)c1c(O)c2cc(OC)c(OC)cc2[nH]c1=O`, the survival was inactive: 103%.
On to `COc1ccc(NC(=O)CCNS(=O)(=O)c2cccc3nsnc23)cc1Cl`, for which the survival is inactive: 59%.
In the case of `O=C(O)c1cccc(Nc2nc(-c3ccccn3)cs2)c1`, the survival is inactive: 112%.
For `COc1ccc(CCNC(=O)c2cc3sccc3n2Cc2ccc(Cl)cc2)cc1OC`, the survival is inactive: 95%.
With `CCOc1ccccc1CN1CCc2nc(Nc3ccc4c(c3)OCCO4)ncc2C1`, the survival was inactive: 83%.
Regarding `O=C(NCCc1ccccc1Cl)c1ccc2c(=O)n(-c3ccccc3)c(=O)[nH]c2c1`, the survival was inactive: 94%.
Turning to `CCCS(=O)(=O)N1CC(=O)N(c2ccc(C)cc2)C(C)(C(=O)NC2CCCCCC2)C1` (stereo not drawn), the survival is inactive: 84%.
Consider `O=C(CSc1nc(Nc2ccc(F)cc2)c2ccccc2n1)c1ccc(F)cc1`, for which the survival is inactive: 130%.
As to `COCC(=O)NCc1ccc2c(c1)OCO2`, the survival was inactive: 114%.
Turning to `CCN(C(=O)Cn1cnc2onc(-c3ccc(F)cc3)c2c1=O)c1ccc(OC)cc1`, the survival is inactive: 75%.
`Cc1cc(C)c2nc(NC(=O)c3ccc(S(=O)(=O)N4CCc5ccccc54)cc3)sc2c1`: the survival was inactive: 82%.
On to `CCN1CCN(c2ccc(N=Cc3ccc(N(C)C)cc3)cc2)CC1`, for which the survival was inactive: 94%.
For the compound `Cc1ccc(CNc2ncnc3onc(-c4ccc(F)cc4)c23)cc1`, the survival is inactive: 117%.
For the compound `CCOc1ccc(NC(=O)Cn2c(=O)c(CNc3ccc(CC)cc3)cc3cc4c(cc32)OCO4)cc1`, the survival was inactive: 60%.
Consider `Cc1oc2ncn(CC(C)C)c(=O)c2c1C(=O)NC(C)c1ccccc1` (stereo not drawn), for which the survival is inactive: 75%.
Take `COc1ccc(-c2nnc(SCC(=O)NC3CCCCC3)nc2-c2ccc(OC)cc2)cc1`: the survival is inactive: 113%.
On to `COCCn1c(C)cc(O)c(C(c2ccccc2)N2CCN(c3ccccc3)CC2)c1=O` (stereo not drawn), for which the survival is inactive: 22%.
Next, `COc1ccc(C(=O)Nc2ccc3c(c2)CCCN3C(=O)c2cccs2)c(OC)c1`: inactive: 79%; `COc1cc(OC)c(NC(=O)N2CCCn3nc(C)cc32)cc1Cl`: inactive: 60%; `Cc1cccc(-n2ccnc2SCC(=O)Nc2cccc3ccccc23)c1C`: inactive: 68%.
`CCOc1ccc(Nc2nnc(-n3nc(C)cc3C)c3ccccc23)cc1`: the survival is inactive: 138%.
For `Cc1onc(-c2ccccc2Cl)c1C(=O)NC(C(=O)O)C(C)C` (stereo not drawn), the survival is inactive: 98%.
On to `O=C(Cn1c(=O)n(Cc2ccc3c(c2)OCO3)c(=O)c2oc3ccccc3c21)Nc1ccccc1F`, for which the survival was inactive: 90%.
For `COc1ccc(CCNC(=O)C2COc3ccccc3C2)cc1OC` (stereo not drawn), the survival is inactive: 59%.
With `O=C1C2C3C=CC(C3)C2C(=O)N1c1ccc(-c2nc3ccccc3o2)cc1` (stereo not drawn), the survival was inactive: 116%.
Regarding `COc1ccc(CCNC(=O)Cc2c(C)c3cc4c(C)coc4c(C)c3oc2=O)cc1`, the survival is inactive: 109%.
For `CCCCSc1nnc2c(n1)OC(C)N(C(C)=O)c1ccccc1-2` (stereo not drawn), the survival is inactive: 123%.
For the compound `CCc1ccccc1NC(=O)CC1Sc2ccc(C(F)(F)F)cc2NC1=O` (stereo not drawn), the survival was inactive: 90%.
With `C/C=C/C(=O)N1CCCC(c2nc(-c3cccc(OC)c3)no2)C1` (stereo not drawn), the survival is inactive: 95%.
Take `O=C(NCCc1ccccc1)c1ccc2c(c1)N(Cc1ccc(F)cc1)C(=O)c1ccccc1S2`: the survival is inactive: 78%.
On to `COc1ccc(C(=O)NC(c2ccc(Cl)cc2)c2cc(Cl)c3cccnc3c2O)cc1` (stereo not drawn), for which the survival was inactive: 79%.
For `Cn1c(Oc2ccc(Cl)cc2)nc2c1c(=O)n(Cc1ccc(F)cc1)c(=O)n2C`, the survival was inactive: 74%.
Take `CCC(C)(C)C(=O)Nc1ccccc1C(C)C`: the survival was inactive: 107%.
Turning to `Cc1cc(C)cc(NC(=O)CCC(=O)N2CCSc3ccccc32)c1`, the survival is inactive: 84%.
Next, `CCCCN(CC)C(=O)c1cc2c(=O)n3cccc(C)c3nc2s1`: inactive: 77%.
In the case of `O=C(O)/C(=C\c1ccccc1)NC(=O)c1ccccc1`, the survival is inactive: 110%.
As for `Clc1ccc2nc(-c3ccccc3)c(NCc3ccco3)n2c1`, the survival was inactive: 108%.
On to `COc1cc(Cl)c(C)cc1NC(=O)c1cnc(N2CCOCC2)c2ccccc12`, for which the survival is inactive: 68%.
For the compound `Cn1c(SCc2ccc(Br)cc2)nc2c([nH]c3ccccc32)c1=O`, the survival was inactive: 131%.
In the case of `Cc1ccc(S(=O)(=O)NCCc2csc(-c3cccc(F)c3)n2)cc1` it was inactive: 93%.
As to `Cc1cccn2c(=O)c3cc(C(=O)Nc4ccc(Cl)c(Cl)c4)sc3nc12`, the survival is inactive: 71%.

Source of the values: PubChem BioAssay AID463173 (ICCB-Longwood Screening Facility, Harvard Medical School, 2010).
